The values that follow come from article PMC12136788.

T1: UNK ZnF1-3 (human, UniProt Q9C0B0 31-174)
T1 sequence: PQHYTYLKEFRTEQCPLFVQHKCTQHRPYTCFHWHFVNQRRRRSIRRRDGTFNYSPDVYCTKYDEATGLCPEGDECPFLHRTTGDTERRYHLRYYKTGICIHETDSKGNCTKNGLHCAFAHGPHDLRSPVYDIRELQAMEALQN

B1: 26842443_26842563_970_3pUTR_ENSG00000120159_ENST00000333916|human|control|control (ssRNA)
RNA: GGGAGUUCUACAGUCCGACGAUCUUUGGGCUAGACUCUGCCAGUCCUAGAAUCUCAUUCACACUUUUCUCAAUGUCUUUCUCCAGGUCAUCUAUCUGACCAGCUUCACUUUGGACUGUAUUUUCUGGUGCCUCGGGAGCAGCUCAACAGAGGAUUGAGCAUCA
B2: chr7:56126341:56126342:+_ENSG00000146731_ENST00000540286|hu_hu|FALSE|FALSE (ssRNA)
RNA: GGGAGUUCUACAGUCCGACGAUCCAUAUUUCUCCUUUUAGCUCUGCGCAGAGCAACUAUGCCUUCUUUUGAAAGAGCAUCUAAGGAAAAGGGGUCAAUUCCCUUUUGAUUAAUAACAACAAAUCCUUUAUCUGAAUCGCCACACAACAGAGGAUUGAGCAUCA
B3: chr17:66519878:66519879:+_ENSG00000108946_ENST00000358598|hu_hu|motif|central (ssRNA)
RNA: GGGAGUUCUACAGUCCGACGAUCACUUCUCUCAUUAUCAUCAAGAUGUGAAAACAGCACAUUCUUUUCAAUGGCUUUGGCGGAAGCGGCCAUUGUCUUGUAAUCUUUUGGUAUAACCUUUCUAACAUAGGAUGCCGCAUCUUCCAACAGAGGAUUGAGCAUCA
B4: 76570844_76571599_1278_CDS_ENSG00000138757_ENST00000395719|human|control|control (ssRNA)
RNA: GGGAGUUCUACAGUCCGACGAUCCUCUUCCACAUUUAAACGUACUUCCCCUCGAAACAUAAUCGGUUUUGCAAUUAAGAUUCUCUGAACUGGUUCAGAGUCAUCAAAAACCACAAAACCAAAAUUUGGAAGCUUUCCCCCAACCAACAGAGGAUUGAGCAUCA
B5: 21046971_21047091_874_3pUTR_ENSMUSG00000020134_ENSMUST00000093290|mouse|control|control (ssRNA)
RNA: GGGAGUUCUACAGUCCGACGAUCAUCAAACCCUGCAGCAUAAAUCCGAGCUGUAAAGGGGGGACUGCGCUCACAUAUGAUCCUACAGGCAAAUCUUGAUAUAGUGCUUUGUACUGACUGCGUGUCGGAAUUACUCUGACUUCCCAACAGAGGAUUGAGCAUCA
B6: chr4:117809766:117809767:-_ENSMUSG00000033326_ENSMUST00000106406|mus_hu|FALSE|FALSE (ssRNA)
RNA: GGGAGUUCUACAGUCCGACGAUCAGGCAAACAAAUUCUUGAGGAGCAAAAACCUGUUUAACCCCUUCAGUAUUGCCCUCUAGUCCCACCCCCCACCCCAAAAUCAGCUCCCUCCCACCUACAGUGGGCCUCCAAUGGCCCCAGCAACAGAGGAUUGAGCAUCA
B7: chr4:144460044:144460045:+_ENSG00000153147_ENST00000283131|hu_mus|hu_hu_hu_mus_False|78_98 (ssRNA)
RNA: GGGAGUUCUACAGUCCGACGAUCACGGUCCAUAGCCUGAAGAUCUACUUGCGGAUUCCAAUCAGAAUCAUAUAAAAUGACUACAUCAGCAGUUGCAAGAUUGAUGCCCAGACCACCAGCACGUGUGCUUAGCAUAAAUACAAACAACAGAGGAUUGAGCAUCA
B8: chr18:21005031:21005032:-_ENSMUSG00000033382_ENSMUST00000025177|mus_mus|motif|central (ssRNA)
RNA: GGGAGUUCUACAGUCCGACGAUCAAACUUCCAGAGUAAUGACAAAUCAGACAGCAAAAGCGGAACUUUUAAAGGGUUUCGGAAAGCCACUUCCACAGUAAUUGGCUCUUCUACAACUGCAAGUGGAAACCUGGAGUUAUCGGACAACAGAGGAUUGAGCAUCA
B9: chr10:8116392:8116393:+_ENSG00000107485_ENST00000346208|hu_hu|motif|central (ssRNA)
RNA: GGGAGUUCUACAGUCCGACGAUCACUGUGGCCAGUGAAAGGAAACAAAACUGGCAGUUUGUCCAUUUGAAUAUCAGACCGGGUUUCUUCUUAAUUUCCACACUAUUUCUCCCAUAUUCCUUAAACUUCUUGGCAUCCUUCAUGCAACAGAGGAUUGAGCAUCA
B10: chr2:216981417:216981418:+_ENSG00000079246_ENST00000392132|hu_hu|hu_hu_hu_mus_True|98_108 (ssRNA)
RNA: GGGAGUUCUACAGUCCGACGAUCCUGAUACUGAUCCCCACCAGAAAGGGCAUUAUCAGUGCCAUCUGUGCCAUAGAGGACUAACGCAAUCUCAUCUUUGCUCUCCGAAAAUACCUGUCGUUGGACAAACAUAGUCAUCACUUUCAACAGAGGAUUGAGCAUCA
B11: chr3:33863462:33863463:+_ENSG00000170248_ENST00000307296|hu_hu|FALSE|FALSE (ssRNA)
RNA: GGGAGUUCUACAGUCCGACGAUCUGCAAUUUGGCUAGCUAAGGCUGCACAAUUGAACAACACACAGCUCUUUUCAUAUCCUAAGCUUGCAAGAGCCAGUUUUACAGAGCCUCCAAAAAGUGAACCUUUAUCGAAAGCAUCCUUCAACAGAGGAUUGAGCAUCA
B12: chrX:71549400:71549401:+_ENSMUSG00000019087_ENSMUST00000019231|mus_hu|mus_mus_mus_hu_False|58_58 (ssRNA)
RNA: GGGAGUUCUACAGUCCGACGAUCGCAGUAGGAAGAGGGAAGCUCUUCAGUCCAGUGCGCUGCAGGGUGGGAAAGCACAACCUAGACCACCGUCCCACCCUCAACCCCCCCACUGGCACAGGGUCACACAAUCUGGGUCAAAGACAACAGAGGAUUGAGCAUCA
B13: chr6:47494509:47494510:-_ENSMUSG00000029687_ENSMUST00000081721|mus_hu|FALSE|FALSE (ssRNA)
RNA: GGGAGUUCUACAGUCCGACGAUCCCCAAUUAACCUAGCAAUGGCACAGAAAUUGUCAUAGUAAGUGCCAAUGAGGACUCUAAACAUUGAGGCUUCAGCACCACUCCACUCCACAUUCUCAGGAGGUUCAAUAUUUGGCUUCAUCAACAGAGGAUUGAGCAUCA
B14: 1968776_1968896_4023_CDS_ENSG00000070366_ENST00000263073|human|control|control (ssRNA)
RNA: GGGAGUUCUACAGUCCGACGAUCGUCCUCACUGCGGAAGGCGAUGGAUUCGAGUUCAUUGCCACGGCUGGUCAGGGCUCGCAGGCAAGAGUCCCGACUCUCGAAUCGCUGCUCGAGGAACUCGAUGGACUUGCGGGCCUUCUCCAACAGAGGAUUGAGCAUCA
B15: chr1:225611761:225611762:-_ENSG00000143815_ENST00000272163|hu_mus|hu_hu_hu_mus_True|18_58 (ssRNA)
RNA: GGGAGUUCUACAGUCCGACGAUCCCAGGCCAUCGGCCUCUGACCACUUCACCCUCAACAAACUUCCUACUUGGCAUUUUCUAUAAUUAGUCUGGCCGCGCUCCGGCGGGAACUCCAGACGGCUCCCGACAGUCACCAGCAGCCCAACAGAGGAUUGAGCAUCA
B16: chr7:35913284:35913285:+_ENSG00000122545_ENST00000399035|perfect_dup|FALSE|FALSE (ssRNA)
RNA: GGGAGUUCUACAGUCCGACGAUCAUCAGGCAUCUGACGUCUGUUCACUCGAGAUUCUGCAUUUAAGUAAUCUUCAAAUUUACUAUCAAUGUAGUCGAUAACAGGCUGCCAGCAAUUACUAUUAUCCACUGCAUCUCCAAAUCCCAACAGAGGAUUGAGCAUCA
B17: chr2:10942720:10942721:-_ENSG00000143870_ENST00000272227|hu_hu|FALSE|FALSE (ssRNA)
RNA: GGGAGUUCUACAGUCCGACGAUCAAUAACUUCUCGGUUGAAAUUCGAUGGAGUUAAUUCGAUCACAUCAUCACUAGAGGAAUACAGACCAUUCACUGCCAGAAAGAAGGUACAGCUCACCAGACCGAGCACCAGGAGAGCCAUCAACAGAGGAUUGAGCAUCA
B18: chr7:54825262:54825263:-_ENSG00000132432_ENST00000352861|hu_hu|hu_hu_hu_mus_False|18_18 (ssRNA)
RNA: GGGAGUUCUACAGUCCGACGAUCCUGCCGGCUGGGCUCCACAAACUGCAUUACCUGAUCCAUGUUUGUUGGAUGGCGGAUUGAGAGCGUAGAGACACGUAGCUCAGGAGAGAACCGGAUGGAGGCCAACCGGAAGCUGGCAACCAACAGAGGAUUGAGCAUCA
B19: chr7:102944291:102944292:+_ENSG00000105819_ENST00000453466|hu_hu|motif|central (ssRNA)
RNA: GGGAGUUCUACAGUCCGACGAUCGUUCAAUCUCUGCUUCUCCCAAUGUGCUGUUUUGUAUUAUAUCAGCAAGAAUUUCGGCAGCUCUUGGCAAGUCUUUAGAGAAUGCUUUGGCAUAGUAUACAGUCUGCUCUCUGGAGGUAUCAACAGAGGAUUGAGCAUCA
B20: chr1:58468927:58468928:-_ENSMUSG00000026034_ENSMUST00000148330|mus_mus|mus_mus_mus_hu_False|1_98 (ssRNA)
RNA: GGGAGUUCUACAGUCCGACGAUCAAUUACUGAAAAAUGAAAGAUGUACCUUAGCUAUGUACUUAAUGAACCAAAUUACCCAAACAAAAUAAACAUGGCAAUAUAAAAAUGUUAAGAAUUUACAAAGCUGUACAAAAAGACUGACAACAGAGGAUUGAGCAUCA
B21: chr1:66463027:66463028:+_ENSMUSG00000015222_ENSMUST00000114013|mus_mus|mus_mus_mus_hu_True|38_48 (ssRNA)
RNA: GGGAGUUCUACAGUCCGACGAUCUUUUCUUUCAGGAGUGGAAAUUCUGCCUCUCCCGGUUUUAAAAGGCUUUUCUUUUCUAUGUUUCUCGAGAGACGGUCUCCGAGCUUCCUUUUCAGCUUUCUCCUCUUUAGGAAUAGUUUCCAACAGAGGAUUGAGCAUCA
B22: chr3:148802587:148802588:-_ENSG00000071794_ENST00000310053|hu_hu|motif|central (ssRNA)
RNA: GGGAGUUCUACAGUCCGACGAUCUCCAACCACAUGACCUCUCAAACUUCCAAAUAAAACGGAAUCUACUUCUUCAUCACGGGUUAGAAAGUCAUCUGGAGGGAUAACAUCUUGGAAUUCAAAACGUGGAAAGAAAGUUGGAUACAACAGAGGAUUGAGCAUCA

The other results are listed elsewhere or left out.

In the assay the target is T1, UNK ZnF1-3. Kind of assay: nsRBNS (natural sequence RNA bind-n-seq); RBNS binding buffer (assumed for nsRBNS): 25 mM Tris pH 7.5, 150 mM KCl, 3 mM MgCl2, 0.01% Triton X-100, 500 ug/ml BSA, 20 U/ml SUPERase-In, 4 C; UNK is unkempt and MSI1 is Musashi-1; names of the RNAs are library labels; protein concentration not given here; high values mean tight binding.
On to B1, for which the binding signal is 0.46 enrichment R. In turn, B2 displayed a binding signal of 1.66 enrichment R.

With B3, the binding signal came to 0.84 enrichment R.

In turn, B4 showed a binding signal of 1.61 enrichment R. In turn, B5 had a binding signal of 1.04 enrichment R. On to B6, for which the binding signal turned out to be 1.78 enrichment R.

For B7, the binding signal was 1.34 enrichment R. Then B8, with 1.07 enrichment R.

B9 registered a binding signal of 1.01 enrichment R. Then B10, with 0.858 enrichment R. B11: the binding signal amounted to 1.09 enrichment R.

For B12, the binding signal is 1.55 enrichment R. Consider B13, for which the binding signal came out at 1.65 enrichment R. Consider B14, for which the binding signal was determined as 0.418 enrichment R.

As to B15, the binding signal amounted to 1.27 enrichment R.

B16: the binding signal worked out at 0.823 enrichment R.

As to B17, the binding signal came to 1.35 enrichment R. Then B18, with 0.796 enrichment R; and B19, with 0.884 enrichment R. Then B20, with 2.78 enrichment R; and B21, with 0.331 enrichment R; and B22, with 0.991 enrichment R.
